# The campaign covered roughly 340,000 compounds. About 6,900 (2%) were called active. No stated cut-off is given here; in the data, active means inhibition above about 30%; inactive means below that, where a call was filed. Only a part is listed here, and it is no random draw. Entries without a call were filed so in the source.
# Biological target: D(2) dopamine receptor (Homo sapiens) (UniProt P14416)
# Assay: HTS Assay for Allosteric Antagonists of the Human D2 Dopamine Receptor: Primary Screen for Antagonists; further: 0% is about no effect
# Conditions: HEK293 TREx D2 cells, calcium flux, dopamine EC80; at 10 µM; stronger effect = higher value
# In short: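 HEK293 T-REx D2 cells, tet-induced, calcium dye no-wash. Cpd pintool add, 180 s kinetic, then EC80 DA, 180 s kinetic. Ca flux read.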
# Chain of UniProt P14416 (P14416 whole entry, looked up): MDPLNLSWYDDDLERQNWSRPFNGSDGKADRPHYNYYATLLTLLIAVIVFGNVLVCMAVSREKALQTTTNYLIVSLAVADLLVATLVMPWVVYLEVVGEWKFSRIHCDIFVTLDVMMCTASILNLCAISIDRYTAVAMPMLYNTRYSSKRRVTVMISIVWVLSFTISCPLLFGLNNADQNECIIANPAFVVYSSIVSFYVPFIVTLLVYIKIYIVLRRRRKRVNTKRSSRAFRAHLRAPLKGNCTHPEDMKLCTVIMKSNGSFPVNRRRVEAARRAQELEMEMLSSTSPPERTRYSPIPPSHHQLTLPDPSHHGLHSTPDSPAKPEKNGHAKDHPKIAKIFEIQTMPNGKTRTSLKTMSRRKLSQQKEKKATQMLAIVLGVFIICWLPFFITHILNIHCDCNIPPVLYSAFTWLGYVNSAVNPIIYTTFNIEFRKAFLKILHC
row,Structure (SMILES),inhibition
1,COc1ccc(NC(=O)COc2ccc(S(=O)(=O)NC3CCCCC3)cc2)c(OC)c1,-9.19%
2,CCCCN(C)C1=CC2=CC(=C(C#N)C#N)CCC2CC1 (configuration not stated),active: 73.4%
3,Cc1ccc(NC(=O)c2cnc(N3CCCCC3)c3ccccc23)cc1Cl,-15.1%
4,COC(=O)c1scc(-c2ccc(C)cc2)c1S(=O)(=O)Nc1cccc(Cl)c1C,-2.69%
5,Cc1ccc(OCCn2cc(C(=O)c3ccco3)c3ccccc32)cc1C,8.4%
6,COC(=O)C1=C(C(=O)OC)SC(=C2C(=S)C(C)(C)N(C(=O)CC(C)C)c3ccccc32)S1,active: 30.3%
7,COc1ccc(-c2nc3scc(CCNS(=O)(=O)c4ccc(F)c(C(F)(F)F)c4)n3n2)cc1OC,12.5%
8,CCCC(=O)C1=C(c2ccc(C)cc2)N(C(=O)CCC)n2cnnc2S1,-14.7%
9,O=c1c2ccccc2[nH]c(=S)n1CCCN1CCN(C2CCCCC2)CC1,active: 82.3%
10,CCN1CCN(c2cc(C)c3cc(NC(=O)c4cccc(Cl)c4)ccc3n2)CC1,-3.71%
11,Cc1oc(-c2ccc(C(=O)Nc3cccc(C(F)(F)F)c3)cc2)nc1CSc1ccccc1,2.26%
12,COc1ccc(Nc2nc3ccc(Cl)cc3n3nnnc23)cc1OC,11.8%
13,O=C(CCCCn1c(=O)c2ccccc2n(CC(=O)Nc2ccccc2)c1=O)NCc1ccccc1Cl,-12.5%
14,Cc1cccc(N2CCN(S(=O)(=O)c3ccc4oc(=O)c5ncn(C)c5c4c3)CC2)c1C,-8.69%
15,CCc1nnc2c3ccccc3nc(Nc3ccccc3OC)n12,-22.9%
16,Cc1c(C)n(Cc2ccccc2)c2ccc(C(=O)NCc3ccc(OC(C)C)cc3)cc12,3.8%
17,CCOC(=O)c1sc(NC(=O)C(C)Sc2nc(-c3ccccc3)cc(C(F)(F)F)n2)c(C(=O)OC)c1C (configuration not stated),2.86%
18,CCOC(=O)C1(Cc2ccccc2C(F)(F)F)CCN(CCCn2cccn2)CC1,active: 47.9%
19,CCOc1ccc(C(=O)Nc2ccc(-c3nc4cc(C)ccc4o3)cc2)cc1,2.89%
20,COCCn1nnnc1C(c1cc2cccc(C)c2[nH]c1=O)N1CCN(c2ccccc2F)CC1 (configuration not stated),active: 34.3%
21,CCCCCn1c(CCCNC(=O)c2cccc(C)c2)nc2ccccc21,-1.02%
22,COCc1ccc(CN2CCC(C(=O)Nc3cccc(-c4cccc(Cl)c4)c3)CC2)o1,active: 33.5%
23,N=c1oc2c3c4c(cc2cc1C(=O)Nc1ccccc1)CCCN4CCC3,active: 70.8%
24,CCOC(=O)c1cc(-c2ccccc2)n(CCC(=O)Nc2cc(OCC)ccc2OCC)c1C,1.29%
25,COc1ccc(NC(=O)c2ccc(NC(=O)CCS(=O)(=O)c3cccs3)cc2)cc1OC,8.24%

row,Structure (SMILES),inhibition
1,CCOc1ccccc1CNC(=O)c1ccc2c(c1)sc1nc(-c3ccccc3)cn12,14.6%
2,Cc1ccc(Cl)cc1N1CCN(CCCNc2ncnc3onc(-c4ccc(Cl)cc4)c23)CC1,-2.79%
3,Cc1ccc(OCCNCC(O)COc2ccccc2)cc1 (configuration not stated),active: 45.2%
4,Cc1noc2ncnc(N3CCCC(C(=O)NC(C)C)C3)c12 (configuration not stated),3.7%
5,Cc1cccc(CCNC(=O)C2CCN(c3ncnc4c3nc3n4CCCCC3)CC2)c1,19.2%
6,Cc1cccc(NC(=O)CN2C(=O)c3ccccc3Sc3ncccc32)c1C,15.1%
7,COc1ccccc1C(=O)OCc1cc(=O)n2nc(C3CCCCC3)sc2n1,-7.83%
8,Cc1ccccc1C(C(=O)NC1CCCC1)N(C(=O)CNC(=O)c1ccco1)c1cccnc1 (configuration not stated),active: 50.8%
9,CCn1c(NCc2ccc(OC)c(OC)c2)nc2ccccc21,-17.1%
10,Cc1ccc(S(=O)(=O)c2nnn3c2nc(N2CCC(C)CC2)c2cc(Cl)ccc23)cc1C,5.57%
11,CCN1C(=O)c2ccccc2S(=O)c2ccc(C(=O)N3CCN(c4ccccc4)CC3)cc21 (configuration not stated),-28.3%
12,CCOC(=O)CN(C(=O)CSc1nnc2c(n1)[nH]c1ccc(F)cc12)c1ccccc1,active: 72.5%
13,COc1cccc(CNC(=O)CCCN2C(=O)CSc3c2c(C)nn3-c2ccccc2)c1OC,-16.9%
14,CCOC(=O)c1c(NC(=O)/C=C/c2ccc(OCC)c(OC)c2)sc2c1CCC2,-10.7%
15,CCc1ccccc1NC(=O)CN(c1ccc(OC)cc1)S(=O)(=O)c1c(C)n[nH]c1C,-5.37%
16,Cc1ccc(NC(=O)c2cc(S(=O)(=O)NCCC3=CCCCC3)ccc2F)cc1C,4.33%
17,Cc1cccc(-c2nc3scc(CCNS(=O)(=O)c4ccc(F)cc4C)n3n2)c1,9.59%
18,CCc1ccc(NC(=O)c2sc3nc(C)c(C(=O)Nc4ccc(C)cc4C)c(-c4ccco4)c3c2N)cc1,-1.52%
19,COc1ccc(Nc2sc(C(=O)c3ccccc3)c(N)c2C(=O)Nc2cc(C)ccc2C)c(OC)c1,-1.96%
20,Cc1oc(-c2ccccc2)nc1CNC(=O)NC1CCCCC1,6.72%
21,Cc1c(NC(=O)c2cc(-c3ccc(Br)cc3)on2)c(=O)n(-c2ccccc2)n1C,2.55%
22,Cc1ccccc1Nc1c(-c2c[nH]c3ccccc23)nc2ccccn12,12%
23,CC(C)(C)OC(=O)N1CCC(c2nnc(SCc3ccccc3F)o2)CC1,-14.6%
24,O=c1c2oc3ccccc3c2n(Cc2ccccc2)c(=O)n1Cc1ccco1,-8.87%
25,COc1ccc(OC)c(CNC(=O)c2cc3ccc4cccnc4c3[nH]2)c1,-8.08%

row,Structure (SMILES),inhibition
1,CCCSc1ccc([C@@H]2[C@@H]3C(=O)N(C)C(=O)[C@@H]3[C@]3(C(=O)OC)CCCCN23)cc1OC,active: 35.5%
2,CC1CCCN(CCCNC(=O)c2cc3c(Cl)nc4ccccc4c3s2)C1 (configuration not stated),-0.754%
3,COc1ccc(C(=O)CCC(=O)Nc2ccc(C)c(Cl)c2)cc1,3.98%
4,COc1cc(Cl)c(C)cc1Nc1nc2ccccc2n2cnnc12,25.5%
5,COc1ccccc1CNC(=O)C1CCN(S(=O)(=O)c2cn(C)cn2)CC1,-1.04%
6,O=C(NCCc1csc(-c2ccc(F)cc2)n1)c1cccc(F)c1,5.08%
7,Cc1ccc(C2c3[nH]c4ccccc4c3CCN2C(=O)CSCc2ccc(F)cc2)cc1 (configuration not stated),5.82%
8,CCc1ccccc1N(C)C(=O)c1sc2nc3n(c(=O)c2c1C)CCCCC3,-7.93%
9,Cc1nn(C)c(C)c1CCNC(=O)Nc1ccccc1C(F)(F)F,14.9%
10,COc1ccc(N2CC(NC(=O)/C=C\c3ccccc3)CC2=O)cc1OC (configuration not stated),-5.67%
11,COc1ccc(CNC(=O)Cn2c(-c3ccccc3)cc(C(C)=O)c2C)cc1OC,3.52%
12,CCN(CC)c1nn2c(=O)c(C(=O)NCc3ccc(N(C)C)cc3)cnc2s1,-1.21%
13,CCC(=O)N1CCc2cc(S(=O)(=O)NC(C(=O)NCCc3cccc(C)c3)C(C)C)ccc21 (configuration not stated),8.31%
14,CN(Cc1ccco1)S(=O)(=O)c1nnc(NC(=O)c2ccccc2Cl)s1,-21.4%
15,Cc1ccc(S(=O)(=O)CCN2CCN(c3ccccc3)CC2)cc1,active: 30.2%
16,O=C(NCc1cccs1)c1ccc(CSc2nc3ccncc3n2Cc2ccccc2F)cc1,-5.13%
17,Cc1cc2oc(C(=O)N(Cc3ccco3)Cc3ccccc3Cl)c(C)c2cc1C,4.07%
18,Cc1ccc(SCC(=O)Nc2ccc3oc(-c4ccccc4F)nc3c2)cc1,-4.11%
19,CCOC(=O)c1ccccc1NC(=O)c1cnc(N2CCOCC2)c2ccccc12,27.1%
20,COc1ccc(NC(=O)c2nc(-c3ccc(C)cc3)n3c2CCCCC3)c(OC)c1,17.1%
21,CCc1cccc(C)c1NC(=O)c1cnn(-c2ccc(OC)cc2)c1C1CCN(C(=O)OC(C)(C)C)CC1,2.96%
22,CCOC(=O)CNC(=O)c1cc2c(=O)n3cccc(C)c3nc2n1C,15.1%
23,CCc1nn2c(=O)c(S(=O)(=O)Nc3ccc(C)c(C)c3)c(C)nc2s1,-4.83%
24,CC(C)Oc1ccc(CNC(=O)c2ccc(NC(=O)N3CC(C)Sc4ccccc43)cc2)cc1 (configuration not stated),-1.33%
25,O=C(/C=C/c1ccccc1)Nc1nc2n(n1)C(c1ccc(F)cc1)C=C(c1ccccc1)N2 (configuration not stated),-6.49%

row,Structure (SMILES),inhibition
1,CC1CCc2onc(C(=O)N3CCN(c4cccc(Cl)c4)CC3)c2C1 (configuration not stated),11.5%
2,CC(=O)Oc1ccc2c(c1)Oc1cc(OC(C)=O)ccc1C21OC(=O)c2ccccc21,active: 83.5%
3,Cc1cc(Br)cc2c1N(Cc1ccccc1OC(C)C)C(=O)C2=O,-2.24%
4,Cc1cc(C)c(S(=O)(=O)NCC(c2ccco2)S(=O)(=O)c2cccs2)c(C)c1 (configuration not stated),19.2%
5,Cc1ccc(NC(=O)Nc2cc(S(=O)(=O)N(C)C)ccc2C)cc1,active: 37%
6,CCc1cnc2c(c1SCC(=O)Nc1ccc(C(=O)OC)cc1)c(=O)n(C)c(=O)n2C,8.47%
7,Cc1ccc2c(c1)cc(C(=O)NCc1ccccc1C)n2C,6.21%
8,CC(C)Oc1ccc(CNC(=O)C2CCN(Cc3cc4ccccc4n3Cc3ccccc3)CC2)cc1,-3.37%
9,COc1cc(CN2CCC(C(=O)N3CCN(c4ccccc4F)CC3)CC2)cc(OC)c1O,active: 33.7%
10,CC(C)(C)c1ccc(OCCOCCn2c(-c3ccc(Cl)cc3)nc3ccccc3c2=O)cc1,-2.73%
11,O=C(COC(=O)c1cccc(NC(=O)c2ccc(Br)cc2)c1)c1ccc(Cl)cc1,7%
12,Cc1cccc(Cn2c(COc3ccccc3)nc3ccccc32)c1,-1.88%
13,CCn1c2ccccc2c2cc(NC(=O)COc3cc(C)ccc3C)ccc21,6.67%
14,COc1ccc(CCNC(=O)c2cc(=O)c3ccc(C)cc3o2)cc1OC,-2.92%
15,CCCCCn1c(=O)[nH]c2cc(C(=O)NC(C)CC)ccc2c1=O (configuration not stated),7.58%
16,CCOc1ccc(CNC(=O)c2ccc3c(c2)nc2n3CCCCC2)cc1,-5.32%
17,COc1ccc(C(=O)Nc2ccc3oc(-c4cccnc4)nc3c2)cc1OC,14.4%
18,C=C1CC(C)OC(c2ccccc2OCC(O)CN2CCCCC2)C1 (configuration not stated),active: 65.1%
19,COCCn1c(=O)[nH]c2cc(C(=O)Nc3ccc(OC)cc3)ccc2c1=O,10.5%
20,Cc1cc(C)n(-c2nc3ccccc3nc2Nc2cc(Cl)ccc2C)n1,15.7%
21,Cc1cc(C)c2nc(N(Cc3cccnc3)C(=O)Cc3ccccc3)sc2c1,2.15%
22,CC(CCN1CCN(c2ccc(F)cc2)CC1)c1ccccc1 (configuration not stated),active: 87.7%

# Source: PubChem BioAssay AID485344 (National Center for Advancing Translational Sciences (NCATS), 2010)
